Data published in PubChem BioAssay (NCATS).
Values joined by “and” are separate entries in the source; they are usually repeats but may differ in a detail not shown here. Identical values can stand only once. Inconclusive means that the source gave no clear call. Such entries were picked first, then a sample of the others. Potencies of inconclusive entries are doubtful fits and often do not repeat. Active and inactive are the calls of the source. Calls follow the shape of the dose curve; as a rule, active = well fitted cell-killing curve with a large enough effect; inconclusive = small, poorly fitted or top-dose-only effect; inactive = flat fitted curve, though single readings scatter.

Assay: qHTS of pediatric cancer cell lines to identify multiple opportunities for drug repurposing: Primary screen for RD cells (AID 1347104); also: nearly all actives have a fitted effect of over 55% in size
Conditions: RD rhabdomyosarcoma viability, CellTiter-Glo luminescence, 48 h; series mostly up to 46 µM
Source text: Drug repurposing or repositioning has been offered as a strategy for drug development in oncology programs. This approach has special potential for childhood cancers and other rare or orphan diseases, where the expected return on new drug development has been a disincentive to pharmaceuticals. […] In this project we exploit the poly-pharmacology of drugs to discover new indications via phenotypic screening of a panel of 19 well-characterized cell lines derived from solid tumors seen in children and adolescents. The goal is to identify approved drugs with previously unrecognized anticancer properties that has the potential to reveal new mechanisms and biological processes involved in carcinogenesis or drug resistance. We employed a titration-based paradigm (quantitative high-throughput screening or qHTS), where all compounds were tested at multiple concentrations for their effect on cell viability. Concentration-response curves (CRCs) were derived directly from the primary screen, and both potency and efficacy values were used to identify compounds with robust bioactivity profiles. We screened the NIH Chemical Genomics Center (NCGC) Pharmaceutical Collection (NPC) and Mechanism Interrogation Plate (MIPE) small molecule collections of approved and investigational compounds against these cell lines; and measured metabolically active cells after 48 hours of compound treatment as a proxy for cell viability. […] Assay Submitter: Nathalia J. Martinez, National Center for Advancing Translational Sciences, National Institutes of Health, Rockville, MD, USA; email: natalia.martinez@nih.gov Shen, M et al. Quantitative high-throughput phenotypic screening of pediatric cancer cell lines identifies multiple opportunities for drug repurposing. Oncotarget 2017 Dec 19;9(4):4758-4772. PMID 29435139.
The cells were obtained from University of North Carolina (UNC), Pediatric Preclinical Testing Program (PPT), and Coriell Institute (CI). qHTS cell viability assay: Cells were assayed in growth media at a density of 500-1,000 cells/well. Five microliters of cells were dispensed into 1,536-well, white, solid-bottom, TC-treated plates (Greiner Bio One) using a multidrop dispenser and incubated at 37 degrees C, 5% CO2, under a humidified atmosphere for 5 hours. Twenty-three nanoliters of compounds and controls (neutral control DMSO or positive control bortezomib at final concentration of 2.3 µM) were subsequently transferred by Kalypsys pintool. For primary screens, the MIPE collection was tested at 11-point dilutions (final concentrations range from 0.78 nM to 46 µM) and the NPC collection at 8-point dilutions (final concentrations range from 0.59 nM to 46 µM). Compounds tested in follow-up screens were assayed at 11-point dilutions. Cells were incubated for 48 hours, followed by addition of 3 µL of CellTiter-Glo (Promega). After a 15 min incubation at room temperature, samples were analyzed for luminescence intensity using a ViewLux High-throughput CCD imager equipped with clear filters.
Potency is read from the fitted curve at half-maximal effect; tags tell the direction and shape of the fitted curve.

| Structure (SMILES) | Potency |
| --- | --- |
| CNC(=O)c1cc(COc2nnc(Nc3ccc(Cl)cc3)c3ccoc23)ccn1 | inconclusive: 37.2 µM [cytotoxic, single point] |
| CN(C)CCc1c[nH]c2ccc(Cn3cncn3)cc12 | inactive |
| NC(=O)[C@@H](CCC(F)(F)F)N(Cc1ccc(-c2ncon2)cc1F)S(=O)(=O)c1ccc(Cl)cc1 | inconclusive: 26.4 µM [cytotoxic, partial curve] |
| Cc1ccc(O)c(C(CCN(C(C)C)C(C)C)c2ccccc2)c1 (stereo not given) | inactive |
| Cc1ccn(-c2ccc(-c3ncco3)cc2)c(=O)c1-c1ccc2nc(N)ncc2c1 | inconclusive: 26.4 µM [cytotoxic, partial curve, poor fit] |
| CCOC(CN1C(=O)[C@](CC(=O)Nc2ccc(C)cc2)(NC(=O)Nc2ccc(C)cc2)c2ccccc21)OCC | inconclusive: 41.8 µM [cytotoxic, single point] |
| CC(C)NCC(O)COc1ccc(COCCOC(C)C)cc1 (stereo not given) | inactive |
| Cc1nccn1CC1CCc2c(c3ccccc3n2C)C1=O (stereo not given) | inconclusive: 0.944 µM [cytotoxic, partial curve, poor fit] |
| CC[C@H]1OC(=O)[C@H](C)[C@@H](O[C@H]2C[C@@](C)(OC)[C@@H](O)[C@H](C)O2)[C@H](C)[C@@H](O[C@@H]2O[C@H](C)C[C@H](N(C)C)[C@@H]2O)[C@](C)(O)C[C@@H](C)CN(C)[C@H](C)[C@@H](O)[C@]1(C)O | inconclusive: 16.6 µM [cytotoxic, partial curve] |
| CC[C@H]1OC(=O)[C@H](C)C(=O)[C@H](C)[C@@H](O[C@H]2O[C@H](C)C[C@H](N(C)C)[C@@H]2O)[C@](C)(OC)C[C@@H](C)C(=O)[C@H](C)[C@H]2N(CCCCn3cnc(-c4cccnc4)c3)C(=O)O[C@]12C | inconclusive: 29.6 µM [cytotoxic, partial curve] |
| CC#CCn1c(N2CCC[C@@H](N)C2)nc2c1c(=O)n(Cc1nc(C)c3ccccc3n1)c(=O)n2C | inconclusive: 20.9 µM [cytotoxic, partial curve] |
| COc1cc(N2CCC(N3CCN(C)CC3)CC2)ccc1Nc1ncnc(Nc2ccccc2S(=O)(=O)C(C)C)n1 | inconclusive: 5.9 µM [cytotoxic, full curve, poor fit] |
| CN(N=O)C(=O)N[C@H]1C(O)OC(CO)[C@@H](O)[C@H]1O (stereo not given in full) | inactive |
| Cc1ccc(C2=Nc3ccc(Cl)cc3OC2)cc1 | inconclusive: 18.7 µM [cytotoxic, partial curve] |
| CN(C)CCOC(c1ccccc1)c1ccccc1 | inconclusive: 41.8 µM [cytotoxic, single point] |
| CCOC(=O)C1=C(N)Oc2ccc(Br)cc2C1C(C#N)C(=O)OCC (stereo not given) | active: 29.6 µM |
| CC1CCN(c2cc(N3CCN(C)CC3)ccc2NC(=O)c2cc(C#N)c[nH]2)CC1 | inconclusive: 5.9 µM [cytotoxic, partial curve, poor fit] |
| CCC[C@H](N[C@@H](C)C(=O)N1[C@@H]2CCCC[C@H]2C[C@H]1C(=O)O)C(=O)OCC | inconclusive: 18.7 µM [cytotoxic, single point] |
| CC=CC(=O)N(CC)c1ccccc1C | inconclusive: 14.8 µM [cytotoxic, partial curve, poor fit] |
| O=C(NOCC(O)CO)c1cc(Br)c(F)c(F)c1Nc1ccc(I)cc1F (stereo not given) | active: 0.148 µM |

| Structure (SMILES) | Potency |
| --- | --- |
| COC1=C(OC)C(=O)C(CCCCCCCCCCO)=C(C)C1=O | inconclusive: 26.6 µM [cytotoxic, single point] and inconclusive: 37.2 µM [cytotoxic, single point] |
| CON(C)C(=O)N1N=C(c2cc(F)ccc2F)S[C@]1(CCCN)c1ccccc1 | inconclusive: 59 µM [cytotoxic, single point] |
| CN(C)C1CCN(C(=O)c2ccc(NC(=O)Nc3nc(N4CCOCC4)nc(N4CCOCC4)n3)cc2)CC1 | active: 0.0662 µM |
| CN(C)S(=O)(=O)c1ccc2c(c1)C(=Cc1cc3c([nH]1)CCCC3)C(=O)N2 | inconclusive: 20.9 µM [cytotoxic, partial curve] |
| C=C[C@@H]1CN2CCC1C[C@@H]2C(O)c1ccnc2ccc(OC)cc12 (stereo not given in full) | inconclusive: 18.7 µM [cytotoxic, partial curve, poor fit] |
| COc1cc2ncnc(-n3nc(-c4ccccn4)nc3N)c2cc1OC | inconclusive: 11.8 µM [cytotoxic, partial curve] |
| N[C@@]1(C(=O)O)CS(=O)(=O)[C@H]2[C@H](C(=O)O)[C@H]21 | inconclusive: 18.7 µM [cytotoxic, partial curve] |
| CC1(C)O[C@H]2C[C@@H]3[C@H]4CCC5=CC(=O)C=C[C@]5(C)[C@@]4(F)[C@@H](O)C[C@]3(C)[C@]2(C(=O)CO)O1 | inactive |
| COc1cc2c(cc1Cc1cccc(Cl)c1F)c(=O)c(C(=O)O)cn2[C@H](CO)C(C)C | inconclusive: 29.6 µM [cytotoxic, single point] |
| O=c1oc2c(O)c(O)cc3c(=O)oc4c(O)c(O)cc1c4c23 | inconclusive: 14.6 µM [cytotoxic, single point] and inconclusive: 18.7 µM [cytotoxic, partial curve, poor fit] |
| Nc1nc2[nH]cc(CCc3ccc(C(=O)N[C@@H](CCC(=O)O)C(=O)O)cc3)c2c(=O)[nH]1 | inconclusive: 1.32 µM [cytotoxic, partial curve, poor fit] |
| CCC(=O)OCC(=O)[C@@]1(OC(=O)CC)[C@@H](C)C[C@@H]2[C@H]3CCC4=CC(=O)C=C[C@]4(C)[C@@]3(F)[C@@H](O)C[C@@]21C | active: 6.62 µM |
| CCOC(=O)N[C@@H]1CC[C@@H]2[C@@H](C1)C[C@H]1C(=O)O[C@H](C)[C@H]1[C@@H]2C=Cc1ccc(-c2cccc(F)c2)cn1 | inconclusive: 29.6 µM [cytotoxic, single point] |
| CC(COc1ccccc1)N(CCCl)Cc1ccccc1 (stereo not given) | inconclusive: 29.6 µM [cytotoxic, partial curve] |
| CN(C)c1ccc(O)c2c1C[C@H]1C[C@H]3[C@H](N(C)C)C(=O)C(C(N)=O)=C(O)[C@@]3(O)C(=O)C1=C2O | inconclusive: 9.35 µM [cytotoxic, partial curve] |
| NC(=O)c1ccc(N(C(N)=O)c2c(F)cccc2F)nc1-c1ccc(F)cc1F | inactive |
| CCCCCCCCCCCC1=C(O)C(=O)C=C(O)C1=O | inconclusive: 0.0296 µM [cytotoxic, full curve] |
| c1ccc2c(-c3cnn4cc(-c5ccc(N6CCNCC6)cc5)cnc34)ccnc2c1 | inconclusive: 4.69 µM [cytotoxic, full curve, poor fit] |
| CN(C)CCOc1cc(-c2cn[nH]c2)ccc1NC(=O)C1COc2ccccc2O1 (stereo not given) | inactive |
| NC1=N[C@@]2(c3cc(NC(=O)c4ccc(F)cn4)ccc3F)COC[C@@H]2CS1 | inconclusive: 0.187 µM [cytotoxic, full curve] |
